In PubChem BioAssay AID1479 (National Center for Advancing Translational Sciences (NCATS), 2009):
In all, about 280,000 compounds went through this assay and about 820 (0.29%) were called active. Inconclusive results, whose numbers are uncertain, are shown with a selection of clear calls. Calls come from the whole dose curve; as a rule, active = well fitted curve in either direction with a large enough effect; inconclusive = small, poorly fitted or top-dose-only effect; inactive = flat fitted curve, though single readings scatter. Potencies of inconclusive entries are left out as doubtful fits.

Test: Total Fluorescence Counterscreen for Inhibitors of the Interaction of Thyroid Hormone Receptor and Steroid Receptor Coregulator 2
Conditions: TRb/SRC2 Texas Red total fluorescence interference; series mostly up to 106 µM
Method in brief: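 Flags fluorescent or light-absorbing compounds by total fluorescence, S + 2P, at 555 nm excitation and 632 nm emission. Mixture: 20 nM Texas Red SRC2 peptide, 0.6 uM human TRb LBD, 1 uM T3, 5% DMSO; compound exposure 5 h at ambient temperature.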
Potency is the fitted concentration of half-maximal effect; tags give direction and shape of the fitted curve or compound fluorescence and quenching.

| SMILES | Potency |
| --- | --- |
| COC(=O)c1nc2n(n1)C(c1cc(OC)ccc1OC)C(C(=O)Nc1ccc(C)cc1C)=C(C)N2 (configuration not stated) | inconclusive [quencher, full curve] |
| CCOc1ccc(NC(=O)CSc2nc3c(oc4ccccc43)c(=O)n2CCOC)cc1 | inconclusive [falling, full curve, poor fit] |
| Cn1ncc2nc(SCC(=O)Nc3ccc(Br)cc3F)n(Cc3ccccc3)c(=O)c21 | inconclusive [falling, partial curve, poor fit] |
| CC(=O)OC[C@H]1O[C@@H](O/N=C\[C@@H](C)[C@H](OCc2ccccc2)C(C)C)[C@H](OC(C)=O)[C@@H](OC(C)=O)[C@H]1OC(C)=O | inconclusive [falling, full curve, poor fit] |
| CC(Nc1cccc2ccccc12)C(=O)N/N=C/c1ccc([N+](=O)[O-])cc1 (configuration not stated) | inactive |
| Cc1cc(NC(=O)C2CCN(S(=O)(=O)c3ccc4[nH]c(=O)oc4c3)CC2)ccc1Br | inconclusive [quencher, partial curve] |
| COc1cccc(OCC(O)CN2CCC(CN3C(=O)c4cccc5cccc(c45)C3=O)CC2)c1 (configuration not stated) | inactive |
| CC(=O)Nc1nonc1-c1nnc(SCC(=O)Nc2cc(C)cc(C)c2)n1-c1ccccc1 | inconclusive [falling, full curve, poor fit] |
| Cc1ccc(S(=O)(=O)c2c(Nc3cc(F)ccc3F)sc(C(=O)c3ccc(F)cc3)c2N)cc1 | inactive |
| CCn1c(=O)c2sccc2n2c(CCC(=O)N3CCN(c4ccc(C(C)=O)cc4)CC3)nnc12 | inconclusive [falling, full curve, poor fit] |
| Cc1ccc(-n2ncc(C(=O)NCCc3c[nH]c4ccccc34)c2C2CCN(C(=O)OC(C)(C)C)CC2)cc1C | inconclusive [quencher, full curve] |
| Cc1oc2ncnc(N3CCOCC3)c2c1C(=O)N(Cc1ccccc1)C(C)C | inconclusive [falling, full curve, poor fit] |
| Cc1c(C(=O)N2CCCCCC2)c(S(=O)(=O)NCc2ccc(Br)cc2)c(C)n1C | inconclusive [falling, partial curve, poor fit] |
| CC(C)C(C)(C#N)NC(=O)CSc1nc2scc(-c3ccco3)c2c(=O)n1-c1ccccc1 (configuration not stated) | inconclusive [quencher, partial curve] |
| O=c1c(S(=O)(=O)c2ccccc2)cn(Cc2cccc(F)c2)c2cc(N3CCOCC3)c(F)cc12 | inconclusive [quencher, full curve] |
| COc1cccc(-c2nnc(-c3ccccc3NC(=O)c3cccc(C(F)(F)F)c3)o2)c1 | inconclusive [quencher, full curve] |
| COc1cc(OC)c(C(=O)OC(C)C(=O)Nc2cc(C(F)(F)F)ccc2Cl)cc1OC (configuration not stated) | inconclusive [falling, full curve, poor fit] |
| C/C(=N\NC(=O)CNc1cccc(C(F)(F)F)c1)c1cccs1 | inactive |
| Cc1cccc(OCCC(=O)Nc2ccc(C)c(S(=O)(=O)N3CCCCC3)c2)c1 | inconclusive [falling, full curve, poor fit] |
| CCc1ccccc1NC(=O)c1cc(-c2ccc(Cl)s2)nc2ccccc12 | inconclusive [falling, partial curve, poor fit] |
| O=C(Nc1ccccc1F)c1cnc(N2CCCCC2)c2ccccc12 | inconclusive [falling, full curve, poor fit] |

| SMILES | Potency |
| --- | --- |
| CC(=O)Nc1ccc2c(c1)C(C)(C)C(C)N2C (configuration not stated) | active: 39.8 µM [fluorescent] |
| COc1cc(CN(C(=O)c2ccc(OC(C)C)cc2)c2ccccn2)cc(OC)c1OC | inconclusive [falling, full curve, poor fit] |
| Cc1ccc(NC(=O)CSc2nnc(-c3cccnc3)s2)cc1 | active: 0.316 µM [quencher] |
| COc1ccc(Nc2nc3ccc(C)cc3nc2-n2nc(C)cc2C)cc1Cl | inactive |
| CCOc1ccc(NC(=O)NCCN2CCN(c3cc(Cl)ccc3C)CC2)cc1 | inactive |
| COc1ccc(Cn2c(SCc3ccc(C(=O)NCc4ccc(C)cc4)cc3)nc3cccnc32)cc1 | inconclusive [quencher, full curve] |
| CCc1cccc(NC(=O)Cn2c(=O)n(CCCCCC(=O)NCc3ccc(F)cc3)c(=O)c3sccc32)c1 | inconclusive [falling, partial curve, poor fit] |
| CC1=C(c2ccc(C)c(C)c2)S(=O)(=O)N(Cc2ccc(C(=O)NCc3ccccc3F)cc2)C1=O | inconclusive [quencher, full curve] |
| CSCC[C@H](NC(=O)[C@@H](NC(=O)[C@H](CCC(=O)O)NC(=O)[C@H](CCSC)NC(=O)[C@H](CC(N)=O)NC(=O)[C@H](CCC(=O)O)NC(=O)[C@H](CC(N)=O)NC(=O)[C@H](CO)NC(=O)[C@H](C)N)[C@@H](C)O)C(=O)O | inconclusive [quencher, partial curve] |
| OC(CNC1CCCC1)COc1c(F)cc(Br)cc1F (configuration not stated) | inactive |
| O=C(Nc1cccc(Br)c1)N1CCC(CN2CCCCCC2)CC1 | inconclusive [quencher, full curve] |
| COc1ccc(N2CCN(c3oc(-c4ccc(COc5cccc(C)c5)o4)nc3C#N)CC2)cc1 | inconclusive [quencher, partial curve] |
| CC(C)=NO[C@@H](C)CN1CCCc2nc(C)c(C)cc21 | inconclusive [quencher, full curve] |
| CC1C/C(=C/c2cccn2C)C(=O)/C(=C/c2cccn2C)C1 (configuration not stated) | inactive |
| NC(=O)c1ccc2nc(-c3ccc(Oc4ccc(Cl)cc4)cc3)[nH]c2c1 | inconclusive [falling, full curve, poor fit] |
| CCCCNC(=O)C1CCC(CNS(=O)(=O)c2ccc(Cl)cc2)CC1 (configuration not stated) | inconclusive [falling, partial curve, poor fit] |
| CCn1cc(S(=O)(=O)c2ccccc2)c(=O)c2cc(F)c(N3CCN(c4ccccc4)CC3)cc21 | active: 56.2 µM [quencher] |
| COc1ccc(-c2[nH]c(-c3cccc(OC)c3)nc2SCC(=O)NC2CCCC2)cc1 | inactive |
| CC(=O)Nc1ccc2nc(SCCOc3cc(C)cc(C)c3)sc2c1 | inconclusive [falling, full curve, poor fit] |
| CC(=O)N1c2ccc(S(=O)(=O)NCC3CCC(C(=O)Nc4cc(C)ccc4C)CC3)cc2CC1C (configuration not stated) | inactive |
| CC(=O)NNc1nc(-c2ccccc2)cs1 | inactive |

| SMILES | Potency |
| --- | --- |
| COC(=O)N/N=C/c1cc(N=Nc2ccccc2Cl)ccc1O | active: 39.8 µM [quencher] |
| CCOc1cc(/C=C2/COc3ccccc3C2=O)ccc1OCC(=O)N(C)C | inactive |
| Cn1c(CN2CCCCC2)nc2cc(NC(=O)c3ccc(Cl)cc3)ccc21 | inconclusive [falling, partial curve, poor fit] |
| Cc1ccc(C(=O)CSc2nnc3ccc4ccccc4n23)cc1 | inactive |
| Cc1c(C)c2c(c(C)c1O)CC[C@@](C)(CCC[C@@H](C)CCC[C@@H](C)CCCC(C)C)O2 | inconclusive [falling, full curve, poor fit] |
| COc1ccc(NC(=O)N2CCN(c3ccc([N+](=O)[O-])cc3)CC2)cc1 | inactive |
| O=C(Oc1ccc2c(c1)OCO2)c1cc2c(s1)CCC2 | inconclusive [quencher, partial curve] |
| Cc1ccc(C(=O)Nc2ccc(N3CCN(S(C)(=O)=O)CC3)cc2)cc1C | inconclusive [rising, single point] |
| Cc1cccc(C)c1NC(=O)c1cccc(COc2cc(Cl)ccc2Cl)c1 | inconclusive [falling, full curve, poor fit] |
| Cc1cc(/C=C2\SC(=S)NC2=O)c(C)n1-c1cccc(O)c1 | inactive |
| Cc1ccc(S(=O)(=O)N2CCC(C(=O)NCCN3CCCCCC3)CC2)cc1 | inactive |
| Cc1ccc(NC(=O)c2ccc(CN3CC(=O)N4CCCCC4C3=O)cc2)cc1C (configuration not stated) | inconclusive [quencher, full curve] |
| CCc1ccc(CNC(=O)c2cc3c(s2)-c2ccccc2OC3)cc1 | inconclusive [quencher, full curve] |
| Cc1[nH]c2ccccc2c1C1(O)C(=O)N(Cc2ccc(Cl)cc2)c2ccccc21 (configuration not stated) | inconclusive [falling, full curve, poor fit] |
| CCc1cccc(C)c1Nc1c(-c2cccc(O)c2)nc2sccn12 | inconclusive [falling, full curve, poor fit] |
| CC(C)OC(=O)c1c(NC(=O)c2cc3nc(-c4ccccc4)cc(C(F)(F)F)n3n2)sc2c1CCCC2 | inconclusive [falling, partial curve, poor fit] |
| CCOc1ccccc1N(CC)C(=O)c1cc2c(=O)n(CC)c3ccccc3c2s1 | inconclusive [falling, full curve, poor fit] |
| Cc1ccc(NC(=O)CCCn2c(=O)c3cccn3c3ccccc32)cc1Cl | inconclusive [falling, full curve, poor fit] |
| Oc1ccc(/C=N/NC(=S)Nc2cccnc2)c(O)c1O | inconclusive [falling, single point] |
| O=Cc1cccn1-c1cccc([N+](=O)[O-])c1 | inactive |
